Source: paper PMC13534789, “Molecular Glue Degraders Enhance CAPRIN1‐Dependent Lysosomal Degradation of APP and Reduce Amyloid β in Alzheimer's Disease” (Advanced Science, 2026)

Target: T1, 10xHis-CAPRIN1 (recombinant human CAPRIN1, full length) (human, UniProt Q14444 1-709)
T1 construct: The host is told in the SPR methods only; the tag is named on the protein in the glycerol gradient; also called rhCAPRIN1; His-tagged CAPRIN1
T1 sequence (looked up): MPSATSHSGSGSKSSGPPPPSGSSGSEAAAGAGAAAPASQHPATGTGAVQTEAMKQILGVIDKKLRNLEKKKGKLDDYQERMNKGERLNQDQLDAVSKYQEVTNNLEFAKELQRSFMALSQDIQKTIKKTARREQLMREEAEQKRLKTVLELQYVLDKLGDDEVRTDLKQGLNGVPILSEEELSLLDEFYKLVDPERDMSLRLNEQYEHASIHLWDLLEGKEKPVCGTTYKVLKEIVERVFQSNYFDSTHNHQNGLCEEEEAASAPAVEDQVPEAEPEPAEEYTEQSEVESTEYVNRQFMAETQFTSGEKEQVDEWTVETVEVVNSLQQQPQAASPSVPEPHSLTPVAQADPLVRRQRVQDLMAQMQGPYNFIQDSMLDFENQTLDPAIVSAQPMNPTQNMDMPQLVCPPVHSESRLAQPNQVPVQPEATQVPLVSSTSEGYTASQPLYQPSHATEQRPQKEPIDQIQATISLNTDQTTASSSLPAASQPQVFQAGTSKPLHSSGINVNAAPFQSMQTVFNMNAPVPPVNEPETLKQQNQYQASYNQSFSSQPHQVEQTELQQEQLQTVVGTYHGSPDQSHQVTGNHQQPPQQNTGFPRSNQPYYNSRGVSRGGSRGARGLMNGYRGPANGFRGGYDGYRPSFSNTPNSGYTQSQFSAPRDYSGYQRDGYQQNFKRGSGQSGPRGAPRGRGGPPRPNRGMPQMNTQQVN
Test: SPR; as a11, APP695 applied after incubation with compound 0152 (text: equimolar; legend: 0.1 µM)
Details: both partners purified

fold decrease of koff with 0152 against without 0152: 10 fold
fold increase of kon with 0152 against without 0152: 3.5 fold
fold reduction of KD with 0152 against without 0152: 36 fold
B1: 10xHis-MBP-APP695 (full-length) (natural protein, human)
chain: LEVPTDGNAGLLAEPQIAMFCGRLNMHMNV[in this place about 40 residues]ANQPVTIQNWCKRGRKQCKTHPHFVIPYRCLVGEFVSDALLVPDKCKFLHQERMDVCETHLHWHTVAKETCSEKSTNLHDYGMLLPCGIDKFRGVEFVCCPLAEESDNVDSADAEEDDSDVWWGGADTDYADGSEDKVVEVAEEEEVAEVEEEEADDDEDDEDGDEVEEEAEEPYEEATERTTSIATTTTTTTESVEEVVRVPTTAASTPDAVDKYLETPGDENEHAHFQKAKERLEAKHRERMSQVMREWEEAERQAKNLPKADKKAVIQHFQEKVESLEQEAANERQQLVETHMARVEAMLNDRRRLALENYITALQAVPPRPRHVFNMLKKYVRAEQKDRQHTLKHFEHVRMVDPKKAAQIRSQVMTHLRVIYERMNQSLSLLYNVPAVAEEIQDEVDELLQKEQNYSDDVLANMISEPRISYGNDALMPSLTETKTTVELLPVNGEFSLDDLQPWHSFGADSVPANTENEVEPVDARPAADRGLTTRPGSGLTNIKTEEISEVKM[in this place about 100 residues]
notes: amyloid precursor protein, human, isoform APP695, full-length; The host is told in the SPR methods only; the tags are named in the glycerol gradient and the MBP blot; also called rhAPP; rhAPP695
